Some of the results follow.

The assay addresses T1, OsWOX13 (Oryza sativa, UniProt Q5QMM3 1-267).
T1 sequence: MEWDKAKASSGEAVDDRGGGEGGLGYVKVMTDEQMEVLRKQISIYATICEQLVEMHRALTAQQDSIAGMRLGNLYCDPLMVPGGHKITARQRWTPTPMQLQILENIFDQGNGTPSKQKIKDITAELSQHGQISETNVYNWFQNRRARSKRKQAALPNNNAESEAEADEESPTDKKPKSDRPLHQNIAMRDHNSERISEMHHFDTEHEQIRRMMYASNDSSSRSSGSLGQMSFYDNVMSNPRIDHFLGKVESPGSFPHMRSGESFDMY
Kind of assay: protein-binding microarray (RPBM); PBS, 2% BSA, 51.3 ng/ul salmon testes DNA, 50 uM zinc acetate, 200 nM TF, 25 C, 1 h; high values mean tight binding. Particulars: protein: recombinant; tags: N-terminal polyhistidine and DsRed monomer fusion (pET32a); label: CyDye5-dUTP incorporated in the synthesized complementary strand; 3' TTTTT single-stranded linker to array surface; dsDNA, one strand shown. The gist of the method:
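For the binding signal, per-feature fluorescence intensity was read in arbitrary units on an Axon 4000B scanner. Before scanning, a 2% BSA-blocked custom Agilent array made double-stranded with Cy5-dUTP was washed after 1 h at 25 °C with 200 nM protein and 50 µM zinc acetate. The proteins were Ni–NTA-purified transcription factors with N-terminal polyhistidine and DsRed fusions, expressed in E. coli BL21-CodonPlus.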
In the case of “TGGCGTGACCAGATTGATGACATACTGGCCAAGATATGGTCGGAGTCACCTAGTGCAG”, the binding signal was 15300 fluorescence intensity (a.u.). With “ATCGATTTTAATTACCAAACGGTAACGGAATGAATGCTGTCGGAGTCACCTAGTGCAG”, the binding signal is 16400 fluorescence intensity (a.u.). Turning to “ATGATTACTCTAAAATGGACTTATTTCGGAACAAAAGGGCCGGAGTCACCTAGTGCAG”, the binding signal is 14700 fluorescence intensity (a.u.). Take “CCGAATTGGCATATTAATGGGCTAATTACGTACGTCGACCCGGAGTCACCTAGTGCAG”: the binding signal was 39000 fluorescence intensity (a.u.). Under “TATAATGTGATTACATTATTATAATTTACATGTAACTACACGGAGTCACCTAGTGCAG” stands 37600 fluorescence intensity (a.u.); under “GTCGCCTGATTGAGCGCTTCATGATCTTGACTTCTCAACTCGGAGTCACCTAGTGCAG”, 26400 fluorescence intensity (a.u.).

Take “TTTTAACTGATTAATCTGAAATGTTCGATGTGAAACAGGACGGAGTCACCTAGTGCAG”: the binding signal was 40000 fluorescence intensity (a.u.). The same measure for “TGTCTGACTGACTGACTGGCTGCTGCTGCTGCTCATTCCTCGGAGTCACCTAGTGCAG”: 23800 fluorescence intensity (a.u.); for “GTTTTAATTAAGATAATGGAAGATGTAGGAAAGATACTAGCGGAGTCACCTAGTGCAG”: 15800 fluorescence intensity (a.u.); for “TGATGTGATTTATCGACTAAGCCAACAAAGCTTAGCATGTCGGAGTCACCTAGTGCAG”: 11900 fluorescence intensity (a.u.). In the case of “TAAATTGGTGAATGTACTGTGATAGCCAGCTATTAAACTACGGAGTCACCTAGTGCAG”, the binding signal is 12100 fluorescence intensity (a.u.).

For “CCTAACTAATCACTGGGGTCAGCTCTTAAACTGCTAAGGCCGGAGTCACCTAGTGCAG”, the binding signal was 17000 fluorescence intensity (a.u.). The same measure for “AAAGTGACTGAATTTTAAGTCATCGGAAATTTACACGCTCCGGAGTCACCTAGTGCAG”: 15400 fluorescence intensity (a.u.). Under “AGACGAATTTATTAAGCCTAATTAATCCATCATTACCAAACGGAGTCACCTAGTGCAG” stands 5540 fluorescence intensity (a.u.); under “AATAACATTCATTGAAATAAATTAAAATCCTAAACTACATCGGAGTCACCTAGTGCAG”, 4420 fluorescence intensity (a.u.).

As to “ATTAAAGATAATTAAATCAAAATGGATAGCCACATACAAGCGGAGTCACCTAGTGCAG”, the binding signal was 14800 fluorescence intensity (a.u.). Under “CTATCCCCAATCAATCACAAGAACATTATAAAACTCCTAGCGGAGTCACCTAGTGCAG” stands 18100 fluorescence intensity (a.u.); under “CTCTAATGAATGTGCATGTTATGTTTCCAAATCTCACTAGCGGAGTCACCTAGTGCAG”, 3850 fluorescence intensity (a.u.); under “CAGGATTGACTATCCGTGTTGGATGGATTGAGCGGAGACCCGGAGTCACCTAGTGCAG”, 35600 fluorescence intensity (a.u.).

Regarding “ACTAAATTGAGACAGCAGTACTTAATTCCTGCATGCGCACCGGAGTCACCTAGTGCAG”, the binding signal was 45800 fluorescence intensity (a.u.). Under “ACGCCGACGATCAATTAAGATGGAGGACAAGCTGATACTGCGGAGTCACCTAGTGCAG” stands 6630 fluorescence intensity (a.u.); under “GTACTTAAATTGCAGTGTACATATTTAGCAGAGTTAGCATCGGAGTCACCTAGTGCAG”, 6060 fluorescence intensity (a.u.). Under “CTTCAAATTAATCTACGTTTAATACTTCAAATGTGTTTCCCGGAGTCACCTAGTGCAG” stands 6670 fluorescence intensity (a.u.); under “AACACTATGATCTAAGTATAATTAGTAATTTAGTATACTACGGAGTCACCTAGTGCAG”, 5480 fluorescence intensity (a.u.); under “GTAAATTTAAAATCCGTTCTCTATACGGGCTTGTGCCGCCCGGAGTCACCTAGTGCAG”, 11000 fluorescence intensity (a.u.). The same measure for “TACAATTTACCTTAATTACACTCCCGACCTCTGCATAACTCGGAGTCACCTAGTGCAG”: 11500 fluorescence intensity (a.u.); for “CACGTGAAATTAATTATCTTAATATGAATAGGAAGTGCAACGGAGTCACCTAGTGCAG”: 20000 fluorescence intensity (a.u.). With “TAATCACGGACTAATTAGGCTTAAAAGATTCGTCTCGCGACGGAGTCACCTAGTGCAG”, the binding signal is 9940 fluorescence intensity (a.u.). With “TAAGCCTAATTAATCCATCATTAGCAAATATTTACTGTAGCGGAGTCACCTAGTGCAG”, the binding signal is 14100 fluorescence intensity (a.u.).

As to “GTTTAATTAACTGCACATGTTGAATAACAATCCTGTCATTCGGAGTCACCTAGTGCAG”, the binding signal is 40800 fluorescence intensity (a.u.). The same measure for “GGCAGCAAGACCAATTTTAATTGAAGACCACGGAAGGAGCCGGAGTCACCTAGTGCAG”: 3450 fluorescence intensity (a.u.); for “ACACGTGATTATAGTAAGATTAATTAAGTAACGCAAACAACGGAGTCACCTAGTGCAG”: 20300 fluorescence intensity (a.u.). The same measure for “TTCTGCTGATTGGAATGACTACAACACTAGAGTTGTCTGTCGGAGTCACCTAGTGCAG”: 56100 fluorescence intensity (a.u.); for “ACCGCCAATTACTTCCACCTTTATAAATAGCCTCCTCCCTCGGAGTCACCTAGTGCAG”: 5880 fluorescence intensity (a.u.); for “ACTTGTATATTGATGAAATCTGTCATCTCCAAACGAAATGCGGAGTCACCTAGTGCAG”: 5530 fluorescence intensity (a.u.). Under “AAATTCCTATTACAAGCTGGTAATTGAGTTGCTGGTACGCCGGAGTCACCTAGTGCAG” stands 5340 fluorescence intensity (a.u.); under “CAAATTATCAGTCCATTACCAGAGGGATTAACTGAACAGGCGGAGTCACCTAGTGCAG”, 14500 fluorescence intensity (a.u.). In the case of “ACATAATTAGTTTATCTCTCCTCAAGCTGGTGCATCTCTCCGGAGTCACCTAGTGCAG”, the binding signal is 31200 fluorescence intensity (a.u.).

Consider “GCATAACTGCACTAAACTACAACTTCTCCTACACCGTCAACGGAGTCACCTAGTGCAG”, for which the binding signal is 4860 fluorescence intensity (a.u.). The same measure for “GAATACAAATTTAGTTTAACATAGTGCCGAGCCAATATGGCGGAGTCACCTAGTGCAG”: 4740 fluorescence intensity (a.u.). Under “AGGATTAAATCAAATCAAGCCGTCTCGCCTTGGGGTTTCCCGGAGTCACCTAGTGCAG” stands 8010 fluorescence intensity (a.u.). The same measure for “AGTTAATAGATTCAACGGTTGGATTAAAGTTGTACTACACCGGAGTCACCTAGTGCAG”: 14000 fluorescence intensity (a.u.).

Values taken from paper PMC7819943, “Rice protein-binding microarrays: a tool to detect cis-acting elements near promoter regions in rice”.
